Results are given in words; binding and its absence hold for the method and conditions named. For part of these data: In cells and extracts the contact can be indirect. Some binding calls cover weakened binding; strength is not graded here. Blank lines part the entries; values can stand above or below the substance they belong to.
Assays:
[1] = molecular target: GST-GRB2 (UniProt P62993); test: pull-down; GST-GRB2 on glutathione superflow resin, 1 mg lysate of serum-starved cells in 500 ul, 1 h at room temperature; western blot; only the target purified
[2] = molecular target: growth factor receptor-bound protein 2 (GRB2), endogenous (human (endogenous in HEK293T, A498, PC3)) (UniProt P62993); test: co-IP; endogenous proteins; serum-starved HEK293T, A498 and PC3 cells; 500 ug lysate, 4 ug antibody overnight at 4 C, Protein A/G magnetic beads; western blot
[3] = molecular target: RFP-GRB2 W193K (UniProt P62993); test: FRET or BRET; GFP- and RFP-tagged proteins co-transfected in HEK293T, serum-starved overnight, fixed; confocal FRET signal
[4] = molecular target: RFP-tagged GRB2 (wild type) (UniProt P62993); test: as above
[5] = molecular target: RFP-GRB2 R86A (UniProt P62993); test: as above
[6] = molecular target: RFP-tagged GRB2 (wild type) (UniProt P62993); test: FRET or BRET; fluorescence lifetime imaging microscopy (FLIM) of GFP; HEK293T with stable FGFR2 expression, transfected, serum-starved, fixed
[7] = molecular target: AGO2 (purified as GST-AGO2, GST cleaved) (human) (UniProt Q9UKV8); test: MST; 2.29 to 75,000 nM unlabelled DICER1^CT with 100 nM Atto 488-labelled AGO2 pre-incubated with 25 uM GRB2; 20 mM HEPES, 150 mM NaCl, 1 mM TCEP pH 7.5; both purified
[8] = molecular target: AGO2 (purified as GST-AGO2, GST cleaved) (human) (UniProt Q9UKV8); test: MST; 2.29 to 75,000 nM unlabelled DICER1^CT with 100 nM Atto 488-labelled AGO2 pre-incubated with 50 uM GRB2; 20 mM HEPES, 150 mM NaCl, 1 mM TCEP pH 7.5; both purified
[9] = molecular target: His-tagged GRB2 (UniProt P62993); test: ITC; 500 uM MBP-tagged AGO2 domain titrated into 20 uM His-tagged GRB2; 25 C; 20 mM Tris-HCl pH 8, 150 mM NaCl, 10% glycerol, 1 mM beta-mercaptoethanol; one-site model with n fixed at 1; both purified

The chains behind the UniProt entries cited, without tags or fusion partners. Where a name states a change or a piece, a line headed by the entry shows the natural chain unless it says otherwise. A line that says so, or that is headed by a name, gives the form on record, which may keep a tag or linker.
UniProt Q9UKV8: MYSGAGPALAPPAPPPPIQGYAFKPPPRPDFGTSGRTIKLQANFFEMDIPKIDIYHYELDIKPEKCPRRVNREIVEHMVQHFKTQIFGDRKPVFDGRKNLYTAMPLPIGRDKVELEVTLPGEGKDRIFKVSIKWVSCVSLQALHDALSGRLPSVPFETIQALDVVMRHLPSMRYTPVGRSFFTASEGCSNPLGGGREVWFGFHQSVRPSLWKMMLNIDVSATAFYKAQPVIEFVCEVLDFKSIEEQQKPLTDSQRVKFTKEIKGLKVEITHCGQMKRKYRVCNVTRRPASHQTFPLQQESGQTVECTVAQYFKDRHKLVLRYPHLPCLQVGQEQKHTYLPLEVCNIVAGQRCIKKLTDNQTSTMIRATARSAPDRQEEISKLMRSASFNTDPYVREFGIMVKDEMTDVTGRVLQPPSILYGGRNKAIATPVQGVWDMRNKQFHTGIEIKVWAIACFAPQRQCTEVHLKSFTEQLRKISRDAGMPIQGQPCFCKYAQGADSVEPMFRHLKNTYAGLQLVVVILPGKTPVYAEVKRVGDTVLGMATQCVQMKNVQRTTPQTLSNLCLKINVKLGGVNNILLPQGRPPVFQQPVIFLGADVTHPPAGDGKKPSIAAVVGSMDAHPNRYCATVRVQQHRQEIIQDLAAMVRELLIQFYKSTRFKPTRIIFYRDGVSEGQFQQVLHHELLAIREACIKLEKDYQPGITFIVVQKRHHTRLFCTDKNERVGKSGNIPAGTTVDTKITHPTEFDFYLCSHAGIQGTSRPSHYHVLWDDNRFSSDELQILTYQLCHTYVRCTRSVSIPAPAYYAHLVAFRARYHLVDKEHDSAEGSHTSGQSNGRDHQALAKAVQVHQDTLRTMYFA
MBP-PAZ 4A (AGO2 PAZ domain 235-348, 323PHLP326 to four alanines) (Q9UKV8, form named): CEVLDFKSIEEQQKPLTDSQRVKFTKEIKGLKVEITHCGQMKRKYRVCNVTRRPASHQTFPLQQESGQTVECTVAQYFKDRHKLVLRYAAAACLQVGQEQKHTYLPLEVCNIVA

binding [1]: binds | binding [2]: binds
Substance: Argonaute 2 (AGO2), endogenous (from UniProt Q9UKV8 1-859)

binding [3]: binds | binding [4]: binds | binding [5]: binds | binding [6]: binds
Substance: GFP-tagged full length AGO2 (wild type) (from UniProt Q9UKV8 1-859)

binding [7]: binds | binding [8]: binds
Substance: His-tagged GRB2 (from UniProt P62993 1-217)

Substance: MBP-PAZ 4A (AGO2 PAZ domain 235-348, 323PHLP326 to four alanines) (from UniProt Q9UKV8 235-348) (domain or fragment)
binding [9]: no binding (tested: 500 uM titrated into 20 uM GRB2)

Substance: MBP-tagged AGO2 MID domain (residues 450-573) (from UniProt Q9UKV8 450-573) (domain or fragment)
binding [9]: no binding (tested: 500 uM titrated into 20 uM GRB2)

Substance: MBP-tagged AGO2 N-terminal domain (residues 1-139) (from UniProt Q9UKV8 1-139) (domain or fragment)
binding [9]: no binding (tested: 500 uM titrated into 20 uM GRB2)

Substance: MBP-tagged AGO2 PIWI domain (residues 517-818) (from UniProt Q9UKV8 517-818) (domain or fragment)
binding [9]: no binding (tested: 500 uM titrated into 20 uM GRB2)

— PMC10276003
